We go through 44 sequences from the supplement of paper PMC11417369.

This is one part of the list.

The test system of this assay is PF3D7_0420300 AP2 domain 1 (GST-tagged). Nature of the assay: gcPBM binding intensity (ln(normalized median fluorescence intensity)); higher = stronger DNA binding. The method, boiled down:
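Using an Agilent 4 × 180k array, primer-extended double-stranded 36-bp intergenic genomic probes and negative controls were exposed for 1 h to GST-fused P. falciparum DNA-binding domains expressed in E. coli. Binding was carried out in 1× PBS with 1% milk, 0.2 mg/ml BSA, 0.5% salmon testes DNA and 0.03% Triton X-100, and protein was detected with Alexa488 anti-GST antibody and a 488 nm scan. Binding intensity is the highest Masliner-normalised natural-log median intensity across replicate spots of either probe orientation.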
As for “TATATTTATAACAACACACACAGATCATAAAACTGC [CACACA_site7086]”, the “gcPBM binding intensity (ln)” value is 10.
As for “AAAAAAAAAAAAAAAACACACACATGCACATCATAT [CACACA_site8083]”, the “gcPBM binding intensity (ln)” value amounted to 9.86.
For “CAAAAGTAAGCACGCACACACAACATGAAATAAAAT [CACACA_site165]” the value was 9.97.
Regarding “TATACACTTATTGGTGGTACAATATATAAATATATG [XGTACX_site3289]”, the “gcPBM binding intensity (ln)” value was 9.12.
For “TTTTGATCTGAAGGAACCTAAAAAGGGAAGAGAAAA [CACACA_negctrl_site1656]” the value was 9.1; for “TATATATATATTTATACACACACATATATTTATATA [CACACA_site8054]”, 9.59; for TTTTTAATATATTAGGTGCACAATAATACACTTTAT, 9.09.
As for “ATTAGTATAATGTAACTTAGTTAATAGTGCTAATAT [CACACA_negctrl_site764]”, the figure is 9.41.
As to “TTTTTTTAATGATATTGTACATTAATAAAAAATATG [XGTACX_site1719]”, the “gcPBM binding intensity (ln)” value was 8.81.
For “ATTTGATATATAATAATACACACTTACATAATTAAT [CACACA_site290]” the value was 9.42; for “TCTTTTTCAAGATGACGTACTTAGATTAATATAAAA [XGTACX_site3931]”, 8.86.
As for “ATATGATCATTTTATCATTTTGCTTTTTCTTTTTTT [CACACA_negctrl_site1325]”, the figure is 9.45.
For “AATTTTGGAACGTGCACACATATGTAATATATATAT [CACACA_site3067]” the value was 9.53; for “ATCGTGTTAAATGTTGTGCACATATAAATTACAAAA [GTGCAC_site9822]”, 9.23.
“TAAATATATAATAAATGTACATATTAATATTATGGT [XGTACX_site1498]”: the “gcPBM binding intensity (ln)” value is 9.3.
For “AAAAAAAATTTAATTGCACACAGGAAAATATAATTT [CACACA_site3810]” the value was 9.48; for “TAAATACAGAGGAAAATACACACGTATATATATAAA [CACACA_site3410]”, 9.65.
In the case of “TTAATACCCAGACACACACACACAAAATAAAATACA [CACACA_site7968]”, the “gcPBM binding intensity (ln)” value came out at 10.1.
As for “TATAAATATACAAACACACATACAAACATATATATA [CACACA_site1120]”, the figure is 9.91.
On to “AAAAAAAAAAAAAAAAGTACAAAAAGAAGAAAAAAA [XGTACX_site6521]”, for which the “gcPBM binding intensity (ln)” value is 9.45.
As for “TTTTTTTTTTTTTTTTTTTTTTTATGTTCTTAAAAA [GTGCAC_negctrl_site62]”, the figure is 8.31; as for “TTTTTTTTTTTTACGTGTACATAAATGTTAAGTAAT [XGTACX_site3901]”, 9.11; as for “AAAATATAGGTATGCACACACATATACTTCTGTGCA [CACACA_site1409]”, 9.62.
For “TATAAATATTTATGTACACACATATACATGTTGAAT [CACACA_site5684]” the value was 9.5; for “TTATATTCTTTTCTCTTTCTACTTTTTTTTTTTTTT [XGTACX_negctrl_site317]”, 9.15.
For “AAGAAAAACTTATATATATATATATATATATATATA [TGCATGCA_negctrl_site466]” the value was 9.31; for “TCATACATGTATATGTGTACATATAATGTATATTCC [XGTACX_site6082]”, 9.13.
With “TTATACACAAAAAAAAAAATATATATATATATATAT [XGTACX_negctrl_site5]”, the “gcPBM binding intensity (ln)” value is 9.04.
For “TGTTGTATTGAAGCTAAAAAATGAGGCAAAAAAAAA [CACACA_negctrl_site1189]” the value was 9.15.
As for “ATTTATGAGTAATACACACACTTGTGGATATATTAC [CACACA_site7735]”, the figure is 9.55; as for “ACTTCAAAAAAAAAAAAATATATATATATATATTAT [GTGCAC_negctrl_site158]”, 8.82.
For “TTTATATAATATAAATTTTTTTTGCAGTAATAAAAA [TGCATGCA_negctrl_site570]” the value was 8.57.
On to “AGAGAAAAAAAAAATTGTACGTATGTAATAATATGC [XGTACX_site2981]”, for which the “gcPBM binding intensity (ln)” value came to 9.55.
For “AGATATTATTTATATATTTATATATATATATAGATA [TGCATGCA_negctrl_site77]” the value was 8.93; for “TAAATATCAAGACACACACACAAAAGTGAATAAATA [CACACA_site7723]”, 9.9; for “TTCTTTTTAAATTACACACACATATATATATGTATA [CACACA_site3515]”, 9.76.
As for “AAAGTAAAAGAAAGCACACACACATGGATTTATGTA [CACACA_site5997]”, the figure is 10.1; as for “TATTTACACCCATGCGCACACATAAATAAATAATAG [CACACA_site5350]”, 9.44.
“TATATATATGTATGTGGTACTTATATTATATACATA [XGTACX_site4550]”: the “gcPBM binding intensity (ln)” value was determined as 9.27.
As for “ATACATATGGTGGATCGTACATATATATAATATGTA [XGTACX_site8631]”, the figure is 9.22; as for “ACAGAAAATAAAATTTGTACATATATAGAATAAAGA [XGTACX_site3014]”, 9.43; as for CCATGTAGTGAATAGGTGCATATCAAAAAAAAAAAA, 9.09.
As for “ACAAAACTGTCTTTCACACAGAAATAAAAAAAAAAA [CACACA_site5829]”, the figure is 8.83; as for “TGATAAGGATGTGAATTACTCAAAGGAAGTAATCAT [CACACA_negctrl_site1432]”, 9.12.
